# Reference: patent US7652041B2, “Cinnamide and hydrocinnamide derivatives with kinase inhibitory activity” (Millennium Pharmaceuticals, Inc., priority 2005, dated 2010)
# Test system: A375 cells
# Experiment: Phospho-ERK ELISA assay
# Assay type: cell-based
# Settings: Homo sapiens, A-375, 3 hours with inhibitor, anti-p44/42MAPK antibody ELISA, normalized for protein content
# Description: Inhibition of Raf kinase activity in whole cell systems can be assessed by determining the decrease in phosphorylation of Raf kinase substrates. Any known Raf kinase substrate can be used to measure inhibition of Raf kinase activity in a whole cell system.
# In a specific example, A375 cells were seeded in a 96-well cell culture plate (12×10^3 cells/100 μL/well) and incubated overnight at 37° C. Medium was removed, and cells were incubated with Raf kinase inhibitors for 3 hours at 37° C. Medium was removed, and cells were fixed with 4% paraformaldehyde for 15 minutes at room temperature.
# Methanol was added for 15 min. Cells were removed and blocked with 10% sheep serum and 1% BSA in PBS overnight at 4° C. Cells were incubated with anti-p44/42MAPK antibody (1:100, Cell Signaling Technologies, #9101L) (20 μL/well) for one hour at room temperature. After washing with PBS three times, cells were stained with anti-rabbit horseradish peroxidase-linked antibody from donkey (1:100, Amersham Bioscience #NA934V) for 1 hour at room temperature. Cells were washed three times with 0.5% Tween-20 in PBS and twice with PBS. 3,3′,5,5′-Tetramethylbenzidine (TMB) liquid substrate system (Sigma, #T8665) (50 μL/well) was added, and cells were incubated for 30-45 minutes at room temperature. Optical density was read at 650 nm. Cells were then washed 3-5 times with PBS to remove color solution. Results were normalized for the protein content in each well using a BCA protein assay kit (Pierce).
row,Compound,IC50 [µM]
1,"O=C(/C=C/c1cccc(Oc2ccnc(C3=NCCN3)c2)c1)Nc1cc(F)cc(C(F)(F)F)c1 [Compound B-9, (2E)-3-(3-{[2-(4,5-dihydro-1H-imidazol-2-yl)pyridin-4-yl]oxy}phenyl)-N-[3-fluoro-5-(trifluoromethyl)phenyl]acrylamide]",≤ 1
2,"Cc1cc(NC(=O)CCc2cccc(Oc3ccnc(C4=NCCN4)c3)c2)ccc1Cl [Compound A-72, N-(4-chloro-3-methylphenyl)-3-(3-{[2-(4,5-dihydro-1H-imidazol-2-yl)pyridin-4-yl]oxy}phenyl)propanamide]",1 to 10
3,"O=C(CCc1cccc(Oc2ccnc(-c3ncc(CN4CCCC4)[nH]3)c2)c1)Nc1ccc(Cl)c(C(F)(F)F)c1 [Compound A-226, N-[4-chloro-3-(trifluoromethyl)phenyl]-3-[3-({2-[5-(pyrrolidin-1-ylmethyl)-1H-imidazol-2-yl]pyridin-4-yl}oxy)phenyl]propanamide]",1 to 10
4,"CCOC(=O)c1cnc(-c2cc(Oc3cccc(CCC(=O)Nc4ccc(Cl)c(C(F)(F)F)c4)c3)ccn2)[nH]1 [Compound A-110, ethyl 2-{4-[3-(3-{[4-chloro-3-(trifluoromethyl)-phenyl]amino}-3-oxopropyl)phenoxy]pyridin-2-yl}-1H-imidazole-5-carboxylate]",1 to 10
5,"CC/C(=C\c1cccc(Oc2ccnc(C3=NCCN3)c2)c1)C(=O)Nc1ccc(Cl)c(C(F)(F)F)c1 [Compound B-8, (E)-2-(3-(2-(4,5-Dihydro-1H-imidazol-2-yl)pyridin-4-yloxy)benzylidene)-N-(4-chloro-3-(trifluoromethyl)phenyl)butanamide]",≤ 1
6,"O=C(CCc1cccc(Oc2ccnc(-c3ncc(C(=O)O)[nH]3)c2)c1)Nc1ccc(Cl)c(C(F)(F)F)c1 [Compound A-113, 2-{4-[3-(3-{[4-chloro-3-(trifluoromethyl)phenyl]amino}-3-oxopropyl)phenoxy]pyridin-2-yl}-1H-imidazole-4-carboxylic acid]",1 to 10
7,"O=C(CCc1cccc(Oc2ccnc(C3=NCCN3)c2)c1)Nc1cccc(Cl)c1 [Compound A-249, N-(3-chlorophenyl)-3-(3-{[2-(4,5-dihydro-1H-imidazol-2-yl)pyridin-4-yl]oxy}phenyl)propanamide]",10 to 25
8,"CC(=N)NCc1cc(Oc2cccc(CCC(=O)Nc3ccc(Cl)c(C(F)(F)F)c3)c2)ccn1 [Compound A-52, N-[4-chloro-3-(trifluoromethyl)phenyl]-3-[3-({2-[(ethanimidoylamino)methyl]pyridin-4-yl}oxy)phenyl]propanamide]",10 to 25
9,"CNC(=O)c1cc(Oc2cccc(CCC(=O)Nc3ccc(CN)c(C(F)(F)F)c3)c2)ccn1 [Compound A-50, 4-[3-(3-{[4-(aminomethyl)-3-(trifluoromethyl)phenyl]amino}-3-oxopropyl)phenoxy]-N-methylpyridine-2-carboxamide]",10 to 25
10,"CN(C)CCNC(=O)c1cc(Oc2ccc(CCC(=O)Nc3ccc(Cl)c(C(F)(F)F)c3)cc2)ccn1 [Compound A-24, 4-[4-(3-{[4-chloro-3-(trifluoromethyl)phenyl]amino}-3-oxopropyl)phenoxy]-N-[2-(dimethylamino)ethyl]pyridine-2-carboxamide]",10 to 25
11,"CC(C)c1cccc(NC(=O)/C=C/c2cccc(Oc3ccnc(C4=NCCN4)c3)c2)c1 [Compound B-2, (E)-3-(3-(2-(4,5-dihydro-1H-imidazol-2-yl)pyridin-4-yloxy)phenyl)-N-(3-isopropylphenyl)acrylamide]",≤ 1
12,"O=C(CCc1cccc(Oc2ccnc(C3=NCCN3)c2)c1)Nc1cccc(C(F)(F)F)c1F [Compound A-203, 3-(3-{[2-(4,5-dihydro-1H-imidazol-2-yl)pyridin-4-yl]oxy}phenyl)-N-[2-fluoro-3-(trifluoromethyl)phenyl]propanamide]",10 to 25
13,"O=C(CCc1cccc(Oc2ccnc(C3=NCCN3)c2)c1)Nc1ccc(Cl)c(C(F)(F)F)c1 [Compound A-55, N-[4-chloro-3-(trifluoromethyl)phenyl]-3-(3-{[2-(4,5-dihydro-1H-imidazol-2-yl)pyridin-4-yl]oxy}phenyl)propanamide]",1 to 10
14,"CN(C)CCNC(=O)C1CNC(c2cc(Oc3cccc(CCC(=O)Nc4ccc(Cl)c(C(F)(F)F)c4)c3)ccn2)=N1 (centres unmarked) [Compound A-237, 2-{4-[3-(3-{[4-chloro-3-(trifluoromethyl)phenyl]amino}-3-oxopropyl)phenoxy]pyridin-2-yl}-N-[2-(dimethylamino)ethyl]-4,5-dihydro-1H-imidazole-4-carboxamide]",1 to 10
15,"COC[C@@H]1CNC(c2cc(Oc3cccc(CCC(=O)Nc4ccc(Cl)c(C(F)(F)F)c4)c3)ccn2)=N1 [Compound A-248, N-[4-chloro-3-(trifluoromethyl)phenyl]-3-[3-({2-[(4S)-4-(methoxymethyl)-4,5-dihydro-1H-imidazol-2-yl]pyridin-4-yl}oxy)phenyl]propanamide]",1 to 10
16,"CC(=O)Nc1cc(Oc2cccc(CCC(=O)Nc3ccc(Cl)c(C(F)(F)F)c3)c2)ccn1 [Compound A-183, 3-(3-{[2-(acetylamino)pyridin-4-yl]oxy}phenyl)-N-[4-chloro-3-(trifluoromethyl)phenyl]propanamide]",1 to 10
17,"CC1CNC(c2cc(Oc3cccc(CCC(=O)Nc4ccc(Cl)c(C(F)(F)F)c4)c3)ccn2)=N1 (centres unmarked) [Compound A-200, N-[4-chloro-3-(trifluoromethyl)phenyl]-3-(3-{[2-(4-methyl-4,5-dihydro-1H-imidazol-2-yl)pyridin-4-yl]oxy}phenyl)propanamide]",1 to 10
18,"O=C(CCc1ccc(Oc2ccnc(C3=NCCCN3)c2)cc1)Nc1ccc(Cl)c(C(F)(F)F)c1 [Compound A-35, N-[4-chloro-3-(trifluoromethyl)pheny]-3-(4-{[2-(1,4,5,6-tetrahydropyrimidin-2-yl)pyridin-4-yl]oxy}phenyl)propanamide]",1 to 10
19,"O=C(CCc1cccc(Oc2ccnc(C3=NCCN3)c2)c1)Nc1cc(C2=NCCN2)cc(C(F)(F)F)c1 [Compound A-51, 3-(3-{[2-(4,5-dihydro-1H-imidazol-2-yl)pyridin-4-yl]oxy}phenyl)-N-[3-(4,5-dihydro-1H-imidazol-2-yl)-5-(trifluoromethyl)phenyl]propanamide]",1 to 10
20,"CC(=O)Nc1cc(Oc2cccc(CCC(=O)Nc3cccc(C(C)(C)C)c3)c2)ccn1 [Compound A-96, 3-(3-{[2-(acetylamino)pyridin-4-yl]oxy}phenyl)-N-(3-tert-butylphenyl)propanamide]",≤ 1
21,"O=C(CCc1ccc(Oc2ccnc(C3=NC(CO)CN3)c2)cc1)Nc1ccc(Cl)c(C(F)(F)F)c1 (centres unmarked) [Compound A-243, N-[4-chloro-3-(trifluoromethyl)phenyl]-3-[4-({2-[4-(hydroxymethyl)-4,5-dihydro-1H-imidazol-2-yl]pyridin-4-yl}oxy)phenyl]propanamide]",1 to 10
22,"O=C(CCc1cccc(Oc2ccnc(NC(=O)C3CC3)c2)c1)Nc1ccc(Cl)c(C(F)(F)F)c1 [Compound A-98, N-{4-[3-(3-{[4-chloro-3-(trifluoromethyl)phenyl]amino}-3-oxopropyl)phenoxy]pyridin-2-yl}cyclopropanecarboxamide]",1 to 10
23,"CC1(C)CNC(c2cc(Oc3ccc(CCC(=O)Nc4ccc(Cl)c(C(F)(F)F)c4)cc3)ccn2)=N1 [Compound A-205, N-[4-chloro-3-(trifluoromethyl)phenyl]-3-(4-{[2-(4,4-dimethyl-4,5-dihydro-1H-imidazol-2-yl)pyridin-4-yl]oxy}phenyl)propanamide]",1 to 10
24,O=C(CCc1ccc(Oc2ccnc(C3=NCCN3)c2)cc1)Nc1ccc(Cl)c(C(F)(F)F)c1 [Compound A-27],1 to 10
25,"O=C(CCc1cccc(Oc2ccnc(-c3ncc(CO)[nH]3)c2)c1)Nc1ccc(Cl)c(C(F)(F)F)c1 [Compound A-147, N-[4-chloro-3-(trifluoromethyl)phenyl]-3-[3-({2-[5-(hydroxymethyl)-1H-imidazol-2-yl]pyridin-4-yl}oxy)phenyl]propanamide]",1 to 10
26,"COCCNC(=O)c1cc(NC(=O)CCc2cccc(Oc3ccnc(C4=NCCN4)c3)c2)cc(C(F)(F)F)c1 [Compound A-191, 3-{[3-(3-{[2-(4,5-dihydro-1H-imidazol-2-yl)pyridin-4-yl]oxy}phenyl)propanoyl]amino}-N-(2-methoxyethyl)-5-(trifluoromethyl)benzamide]",10 to 25
27,"CN(C)C(=O)c1cnc(-c2cc(Oc3cccc(CCC(=O)Nc4ccc(Cl)c(C(F)(F)F)c4)c3)ccn2)[nH]1 [Compound A-171, 2-{4-[3-(3-{[4-chloro-3-(trifluoromethyl)phenyl]amino}-3-oxopropyl)phenoxy]pyridin-2-yl}-N,N-dimethyl-1H-imidazole-5-carboxamide]",≤ 1
28,"COC(=O)C1CNC(c2cc(Oc3cccc(CCC(=O)Nc4ccc(Cl)c(C(F)(F)F)c4)c3)ccn2)=N1 (centres unmarked) [Compound A-180, methyl 2-{4-[3-(3-{[4-chloro-3-(trifluoromethyl)phenyl]amino}-3-oxopropyl)phenoxy]pyridin-2-yl}-4,5-dihydro-1H-imidazole-4-carboxylate]",10 to 25
29,"O=C(CCc1cccc(Oc2ccnc(C3=NCCN3)c2)c1)Nc1ccc(I)c(C(F)(F)F)c1 [Compound A-239, 3-(3-{[2-(4,5-dihydro-1H-imidazol-2-yl)pyridin-4-yl]oxy}phenyl)-N-[4-iodo-3-(trifluoromethyl)phenyl]propanamide]",1 to 10
